Test results from PubChem BioAssay AID2060622 (Molecular Pharmacology Branch, DTP, NCI, 2025).
Certain results were filed several times, with different values. The list is limited to them. There may be further records. Results that share an entry are repeats in other runs, samples, wells, individuals or studies. A date in brackets names the month of the test.

System: 242566-281-R-J2-PDC complex spheroid viability
Assay: Anticancer human tumor 242566-281-R-J2-PDC patient-derived pancreatic carcinoma cell line growth inhibition [CLK]
Details: for viability, T/C: stronger effect = lower value
From the text: A high-throughput screen of multi-cell type tumor spheroids was designed to identify active combinations of […] and targeted small molecules. Complex spheroids include a stromal component modeled by human endothelial cells (HUVEC) and fibroblasts modeled by human mesenchymal stem cells (MSCs). The concentration ranges selected for each drug and investigational agent were based upon clinically achievable concentrations if the clinical Cmax of the agent was known.
Compounds. The drugs and investigational agents: cirtuvivint (SM08502; NSC835563), CC-671 (NSC850746), vemurafenib (NSC761431), tapotoclax (NSC804041), sotorasib (NSC818433), adagrasib (NSC831453), MRTX-1133 (NSC836407), BAY2416964 (NSC825713), copanlisib (NSC816437), inavolisib (NSC800729), abemaciclib (NSC768073), osimertinib (NSC779217), entinostat (NSC756642), eltanexor (KPT-8602, NSC794443), venetoclax (NSC766270), ceralasertib (NSC777638), bortezomib (NSC756655), olaparib (NSC753686), talazoparib (NSC767125), alisertib (NSC759677), peposertib (NSC802822), gemcitabine (NSC613327), 5-fluorouracil (NSC19893), SN-38 (NSC673596), oxaliplatin (NSC266046), paclitaxel (NSC125973), and doxorubicin (NSC123127), were obtained from the National Cancer Institute (NCI) Developmental Therapeutics Program Chemical Repository. The FDA-approved anticancer drug set is available from the Developmental Therapeutics Program at https://dtp.cancer.gov/organization/dscb/obtaining/available plates.htm. […] The stock solutions were prepared in dimethyl sulfoxide (DMSO, Sigma-Aldrich, St. Louis, MO, cat. D2650), except for the platinum complexes which were prepared in saline (Quality Biological, Gaithersburg, MD, cat. 114-055-101), at 800-fold the tested concentration and stored at -70 degrees C prior to their use. All drugs and investigational agents were tested over a range starting from a high concentration at or near the clinical Cmax and decreasing in half-log increments. If the clinical Cmax for an agent had not been determined, the highest concentration tested was 10 microM.
Cell Culture. All cells were maintained in an incubator at 37 degrees C and 5% CO2 with 95% humidity. The PDC lines were cultured according to standard operating procedures established by the NCI PDMR. Briefly, all PDCs were thawed and cultured in Matrigel-coated flasks prepared with a working solution of 1X Ham's F-12 nutrient mix, without supplementation (Invitrogen, Waltham, MA, cat. 11765054), 100 U/mL penicillin-streptomycin (Invitrogen, cat. 15140122), and 2.5% Matrigel (Corning Inc., Corning, NY, cat. 354248) for the first three passages. The 947758-054-R-J2-PDC line was cultured in 6B/Colon 1A media, which includes advanced DMEM/F-12 (Thermo Fisher Scientific, cat. 12634028), 10 mM HEPES (Thermo Fisher Scientific, cat. 15630080), 1X GlutaMAX supplement (Thermo Fisher Scientific, cat. 35050061), 0.1 mg/mL primocin (InvivoGen, cat. ant-pm-2), 10% defined fetal bovine serum, heat inactivated (HyClone Laboratories Inc., cat. SH30070.03HI), 1.25 mM N-Acetyl-L-cysteine (Sigma-Aldrich, cat. A9165), 10 mM nicotinamide (Sigma-Aldrich, cat. N0636), 1X B-27 supplement (Thermo Fisher Scientific, cat. 17504044), 1X N-2 supplement (Thermo Fisher Scientific, cat. 17502048), and 10 microM Y-27632 dihydrochloride (Tocris Bioscience, cat. 1254). […]
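Further: spheroids exposed to compounds for 7 days before readout.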
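Wherever viability, T/C is given: 100% = DMSO vehicle control wells.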

Row | SMILES | IC50 (compound alone) | viability, T/C (compound alone 0.316 µM) | viability, T/C (compound alone 0.0316 µM) | viability, T/C (compound alone 0.1 µM)
1 | C#Cc1c(F)ccc2cc(O)cc(-c3ncc4c(N5CC6CCC(C5)N6)nc(OCC56CCCN5CC(F)C6)nc4c3F)c12 (stereo not given) | 116 nM [2023-07] and 2.55 µM [2023-08] |  |  | 
2 | CN1CCN(c2cc(C(=O)Nc3cc4cc(-c5cnn(C)c5)ccc4cn3)ccn2)CC1 |  | 31.2, 22.4, 23.9, 34.8, 33.1, 34.2, 43.7, 34.9, 35.5, 37.6, 48.3, 38.3% |  | 
3 | CNC(=O)c1ccc(Nc2nc(OC3CCCC3)c3c(-c4ccc5nc(C)oc5c4)c[nH]c3n2)c(OC)c1 |  | 87.8, 82.3, 80.7, 90.9, 96.2, 97.3, 93.1, 85.1, 90.1, 71.8, 94.7, 88.9% | 91.2, 89.5, 104, 87.8, 86, 79.9, 81.4, 83.5, 74.7, 96.3, 87, 103% | 88.9, 85.3, 107, 76, 88.8, 88.6, 78.1, 89.4, 85.4, 79.1, 91.8, 72%
